According to PubChem BioAssay AID504333 (National Center for Advancing Translational Sciences (NCATS), 2011):
Where “and” joins values, the source holds several entries; their conditions need not be identical. Equal entries are not always repeated. In all, about 360,000 compounds went through this assay and about 16,000 (4.4%) were called active. Inconclusive results, whose numbers are uncertain, are shown with a selection of clear calls. The call rests on the fitted dose curve; in most records, active means well fitted inhibition curve with a large enough effect; inconclusive means small, poorly fitted or top-dose-only effect; inactive means no such curve, though single readings can be large or run the other way. Where the call is inconclusive, the potency comes from a doubtful curve fit.

What follows are compounds tested against Bromodomain adjacent to zinc finger domain protein 2B (Homo sapiens) (UniProt Q9UIF8) (assay: qHTS Assay for Inhibitors of BAZ2B). Conditions: AlphaScreen BAZ2B-H3K14Ac peptide displacement; activity change, negative = inhibition: at 114 µM (top of the series).
How it was run: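 Inhibition is scored as reduced AlphaScreen emission. The BAZ2B/b-H3(5-23)K14Ac complex (50 nM each) in PBS pH 7.4, 0.01% Tween-20 meets compound (up to 110 uM) for 30 min at RT before bead addition.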
Further: nearly all actives have a fitted effect of over 60% in size.
On the % scale 0 is the no-effect control and ±100 the full control effect; potency means the concentration at half of the fitted maximal effect; tags describe the fitted curve by direction and shape.

Chain of UniProt Q9UIF8 (Q9UIF8 whole entry, looked up, the tested form may be a part): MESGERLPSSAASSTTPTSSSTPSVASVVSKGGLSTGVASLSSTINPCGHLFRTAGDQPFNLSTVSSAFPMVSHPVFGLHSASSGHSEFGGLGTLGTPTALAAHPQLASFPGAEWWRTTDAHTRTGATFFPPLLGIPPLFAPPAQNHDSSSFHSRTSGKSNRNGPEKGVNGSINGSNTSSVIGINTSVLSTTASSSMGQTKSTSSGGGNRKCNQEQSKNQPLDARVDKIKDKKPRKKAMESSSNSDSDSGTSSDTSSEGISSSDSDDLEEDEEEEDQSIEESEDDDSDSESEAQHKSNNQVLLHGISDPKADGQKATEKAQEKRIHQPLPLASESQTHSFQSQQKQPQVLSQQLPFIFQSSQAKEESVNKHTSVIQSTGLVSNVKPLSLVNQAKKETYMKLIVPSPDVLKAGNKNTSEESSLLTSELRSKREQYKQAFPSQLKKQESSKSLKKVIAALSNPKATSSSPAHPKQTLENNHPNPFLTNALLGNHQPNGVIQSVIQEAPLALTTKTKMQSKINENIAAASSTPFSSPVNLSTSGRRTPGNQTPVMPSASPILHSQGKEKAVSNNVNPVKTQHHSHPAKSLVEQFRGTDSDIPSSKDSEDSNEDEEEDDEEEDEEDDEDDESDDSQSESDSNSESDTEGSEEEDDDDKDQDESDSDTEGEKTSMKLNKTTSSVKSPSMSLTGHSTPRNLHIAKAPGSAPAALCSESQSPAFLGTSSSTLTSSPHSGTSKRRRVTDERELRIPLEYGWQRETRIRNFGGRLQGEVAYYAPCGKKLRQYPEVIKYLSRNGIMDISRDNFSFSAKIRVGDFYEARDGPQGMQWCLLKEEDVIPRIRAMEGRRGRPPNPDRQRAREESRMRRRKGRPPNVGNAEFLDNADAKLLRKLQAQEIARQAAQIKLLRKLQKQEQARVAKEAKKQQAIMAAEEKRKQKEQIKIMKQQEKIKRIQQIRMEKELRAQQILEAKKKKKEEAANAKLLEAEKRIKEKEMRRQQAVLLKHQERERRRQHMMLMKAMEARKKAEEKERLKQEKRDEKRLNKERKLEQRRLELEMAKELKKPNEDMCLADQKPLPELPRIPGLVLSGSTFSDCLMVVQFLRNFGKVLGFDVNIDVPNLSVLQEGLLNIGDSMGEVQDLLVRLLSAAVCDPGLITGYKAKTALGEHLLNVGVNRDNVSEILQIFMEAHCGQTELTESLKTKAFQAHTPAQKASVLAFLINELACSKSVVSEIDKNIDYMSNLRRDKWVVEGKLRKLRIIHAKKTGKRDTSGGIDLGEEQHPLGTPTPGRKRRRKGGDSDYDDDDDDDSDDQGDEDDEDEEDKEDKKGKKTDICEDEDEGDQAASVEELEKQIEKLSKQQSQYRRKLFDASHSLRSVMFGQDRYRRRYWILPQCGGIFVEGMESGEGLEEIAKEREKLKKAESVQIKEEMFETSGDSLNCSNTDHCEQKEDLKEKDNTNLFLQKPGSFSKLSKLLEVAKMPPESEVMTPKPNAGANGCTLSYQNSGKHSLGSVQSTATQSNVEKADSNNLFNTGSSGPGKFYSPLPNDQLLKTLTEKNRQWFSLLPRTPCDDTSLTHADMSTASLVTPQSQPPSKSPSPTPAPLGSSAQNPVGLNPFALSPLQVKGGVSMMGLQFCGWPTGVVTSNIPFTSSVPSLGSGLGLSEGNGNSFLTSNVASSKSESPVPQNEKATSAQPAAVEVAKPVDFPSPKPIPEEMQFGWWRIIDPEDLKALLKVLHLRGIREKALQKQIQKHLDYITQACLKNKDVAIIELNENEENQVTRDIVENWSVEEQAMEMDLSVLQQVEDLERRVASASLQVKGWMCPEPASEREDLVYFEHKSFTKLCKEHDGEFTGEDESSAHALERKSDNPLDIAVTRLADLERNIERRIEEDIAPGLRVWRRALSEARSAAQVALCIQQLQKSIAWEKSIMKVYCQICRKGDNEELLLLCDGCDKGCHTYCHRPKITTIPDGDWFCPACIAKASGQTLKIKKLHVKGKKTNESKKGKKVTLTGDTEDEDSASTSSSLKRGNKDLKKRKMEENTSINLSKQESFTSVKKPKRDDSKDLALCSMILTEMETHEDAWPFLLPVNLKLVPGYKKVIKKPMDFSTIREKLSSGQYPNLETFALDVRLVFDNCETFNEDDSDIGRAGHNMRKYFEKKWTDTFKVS

Structure (SMILES) | Potency | activity change, negative = inhibition
CC1CN(CCCCSc2ccc(Cl)cc2)CC(C)O1 (stereo not given) | inconclusive: 89.1 µM [inhibitor, single point] | 
N#Cc1ccc(-c2ccc(C3Nc4ccccc4C(=O)N3O)o2)cc1 (stereo not given) |  | inactive: -34.8%
CC1Sc2ccc(C(=O)NCc3ccccn3)cc2NC1=O (stereo not given) |  | inactive: -16.5%
CCNC(=S)NS(=O)(=O)c1ccccc1 | inconclusive: 89.1 µM [inhibitor, single point] | 
Cc1ccc(C(=O)NC(C)c2ccc3c(c2)OCO3)s1 (stereo not given) |  | inactive: -13.6%
CCCS(=O)(=O)c1c(S(=O)(=O)CCC)c2c(N)cccn2c1C(=O)c1ccc(F)cc1 | inconclusive: 50.1 µM [inhibitor, partial curve] | 
CCC(C)NC(=O)CCn1c(-c2ccccc2)cc(C(C)=O)c1C (stereo not given) | active: 50.1 µM | 
O=C(CSc1nnc(NC(=O)c2ccccc2Cl)s1)Nc1ccc2c(c1)oc1ccccc12 | inconclusive: 100 µM [inhibitor, single point] | 
CC1CC(C)CN(S(=O)(=O)c2ccc3c(c2)CC(C)N3C(=O)C2CC2)C1 (stereo not given) | inconclusive: 79.4 µM [inhibitor, single point] | 
Cc1c(C(=O)N(C)C)sc2c1c(=O)n(-c1ccc(F)cc1)c(=O)n2Cc1ccccc1C#N |  | inactive: -3.74%
Cc1cc(C)nc(SCc2nnc(SCC(=O)O)n2-c2ccccc2)n1 | inconclusive: 89.1 µM [inhibitor, single point] | 
Cc1ccc(CNC(=O)CSc2nnc(CNC(=O)c3ccccc3)o2)cc1 |  | inactive: -0.455%
CCOC(=O)C1=C(c2ccccc2)NC(=S)NC1c1ccc(Cl)cc1 (stereo not given) | inconclusive: 28.2 µM [inhibitor, full curve] | 
COc1ccc(N2CCN(CCCNS(=O)(=O)c3c(C)noc3/C=C/N(C)C)CC2)cc1 | active: 35.5 µM | 
CCC(=O)c1ccc(OCC(=O)N2CCN(c3ncccn3)CC2)cc1 |  | inactive: -4.49%
Fc1ccc2c(c1)-c1c(cnc3cc(-c4ccc(Cl)cc4)nn13)CO2 |  | inactive: -2.11%
CC(C)CC(C(=O)OCC(=O)c1c(N)n(C)c(=O)n(C)c1=O)N1C(=O)c2ccccc2C1=O (stereo not given) |  | inactive: -28.7%
CC(=O)Nc1ccc(NC(=O)CSc2ccc(-c3ccco3)nn2)cc1 | inconclusive: 44.7 µM [inhibitor, partial curve] | 
Cc1nnc(NC(=O)CCSCCC(=O)Nc2nnc(C)s2)s1 | active: 50.1 µM | 
CCOC(=O)c1c(C)sc(-c2c(-c3cccc(Cl)c3)[nH]c3c2c(=O)n(C)c(=O)n3C)c1O | inconclusive: 79.4 µM [inhibitor, single point] | 
COc1ccc(C(=O)/C=C/C(=O)N(Cc2ccccc2OC)C(C(=O)NC2CCCCC2)c2ccncc2)c(O)c1 (stereo not given) | inconclusive: 79.4 µM [inhibitor, single point] | 
N#CC1=C(N)Oc2cc3ccccc3cc2C1c1cccnc1 (stereo not given) |  | inactive: -33%
Cc1cc(C)n2nc(SCC(=O)N(C)Cc3ccccc3)nc2n1 |  | inactive: -3.29%

Structure (SMILES) | Potency | activity change, negative = inhibition
O=C(O)CN1CCCCC1 | inconclusive: 79.4 µM [inhibitor, single point] | 
Clc1ccc(/C=N/c2c(-c3ccco3)nc3ccccn23)cc1 | inconclusive: 35.5 µM [inhibitor, partial curve] | 
CC(/C=C/c1ccc(N(C)C)cc1)=N\N=C1\NC(=O)CC(C(=O)Nc2ccccc2)S1 (stereo not given) | inconclusive: 8.91 µM [inhibitor, full curve, poor fit] | 
O=S(=O)(c1ccccc1)c1nc(-c2cccc(Cl)c2)oc1N1CCOCC1 | inconclusive: 11.2 µM [inhibitor, full curve] and inconclusive: 44.7 µM [inhibitor, partial curve] | 
CCCOc1ccc(C2C(C(=O)c3ccc(C)o3)=C(O)C(=O)N2Cc2ccco2)cc1 (stereo not given) | inconclusive: 31.6 µM [inhibitor, partial curve] | 
COc1cc(CNCc2ccco2)ccc1OCc1ccccc1 | inconclusive: 89.1 µM [inhibitor, single point] | 
Cc1ccc2cc(C)c3nnc(SCC(=O)N4CCN(C(=O)c5ccco5)CC4)n3c2c1 |  | inactive: -2%
Nc1c(C(=O)O)nnn1Cc1ccccc1 |  | inactive: -30%
Cc1ccc(N(Cc2cc3cccc(C)c3[nH]c2=O)S(=O)(=O)c2ccccc2)c(C)c1 | inconclusive: 22.4 µM [inhibitor, single point] | 
COc1cc(NC(=O)CCc2nnc3ccc(N4CCN(C)CC4)nn23)cc(OC)c1 | inconclusive: 44.7 µM [inhibitor, full curve, poor fit] | 
CN(C)c1ccc(C(=O)N2CCN(c3cc(C(F)(F)F)nc4ccccc34)CC2)cc1 | inconclusive: 25.1 µM [inhibitor, partial curve] | 
O=C1/C(=N\S(=O)(=O)c2cccs2)C([n+]2ccccc2)=C([O-])c2ccccc21 | inconclusive: 89.1 µM [inhibitor, single point] | 
CCOC(=O)c1c(S(=O)(=O)NCC(=O)N(C)c2ccc(C)cc2)c(C)n(C)c1C | inconclusive: 79.4 µM [inhibitor, partial curve] | 
Cc1nnc(C)n1/N=C/c1cccnc1 |  | inactive: 0.237%
Cc1cc(NS(=O)(=O)c2ccc(NC(=S)NC(=O)c3ccc(C(C)(C)C)cc3)cc2)no1 | inconclusive: 79.4 µM [inhibitor, single point] | 
COCCNC(=O)c1c(CS(=O)(=O)c2ccccc2)noc1C(=O)NCc1ccccc1 | inconclusive: 89.1 µM [inhibitor, single point] | 
C=CCn1c(N2C(=O)CC(Cc3ccccc3)C2=O)nc2ccccc21 (stereo not given) |  | inactive: 10.4%
N#C/C(=C\c1ccc(C(=O)O)cc1)c1nc2sc3c(c2c(=O)[nH]1)CCCC3 | active: 44.7 µM | 
Cc1ccc(-n2nc(C(=O)O)c(O)cc2=O)cc1 | inconclusive: 79.4 µM [inhibitor, single point] | 
COc1ccccc1NC(=O)CSCc1ccc([N+](=O)[O-])cc1 |  | inactive: -18.7%
COc1ccc(CCNc2oc(COc3ccccc3F)nc2C#N)cc1OC | inconclusive: 44.7 µM [inhibitor, partial curve] | 
N#Cc1nc(COc2cccc(Cl)c2)oc1NCc1ccncc1 | inconclusive: 89.1 µM [inhibitor, single point] | 
